Residue numbers refer to the chain shown, from its start. In names and notes the source's numbering stands. Read-outs that look alike come from different tables or passages of the source.
B1: PR001487 (other)
heavy: EVQLVESGGGLVQPGGSLRLSCAASGFTFSSYWMSWVRQAPGKGLEWVANIKQEGSEKYYVDSVKGRFTISRDNAKNSLYLQMNSLRAEDTAVYYCARDRAVAGAFDIWGQGTMVTVSSASTKGPSVFPLAPSSKSTSGGTAALGCLVKDYFPEPVTVSWNSGALTSGVHTFPAVLQSSGLYSLSSVVTVPSSSLGTQTYICNVNHKPSNTKVDKKV[letters of human IgG1 Fc omitted]GGGSGGGGSGGGGSTIPPHVQKSVNNDMIVTDNNGAVKFPQLCKFCDVRFSTCDNQKSCMSNCSITSICEKPQEVCVAVWRKNDENITLETVCHDPKLPYHDFILEDAASPKCIMKEKKKPGETFFMCSCSSDECNDNIIFSEEYNTSNPD
light: DIQMTQSPSTLSASVGDRVTVTCRASQSIYIWLAWYQQKPGKAPNLLIYKASSLETGVPSRFSGSGSGTEFTLTISSLQPDDFATYYCQQYYGSSRTFGQGTKVEIKRTVAAPSVFIFPPSDEQLKSGTASVVCLLNNFYPREAKVQWKVDNALQSGNSQESVTEQDSKDSTYSLSSTLTLSKADYEKHKVYACEVTHQGLSSPVTKSFNRGEC
notes: anti-PD-L1 / TGFBRII bifunctional fusion protein: PR000265 heavy chain (hIgG1) - (G4S)3 - human TGFBRII extracellular region 23-159 as first polypeptide; light chain as second polypeptide
B2: PR002251 (other)
heavy: EVQLVESGGGLVQPGGSLRLSCAASGFTFSSYWMSWVRQAPGKGLEWVANIKQDGSEKYYVDSVKGRFTISRDNAKNSLYLQMNSLRAEDTAVYYCARDRAVAGAFDIWGQGTMVTVSSASTKGPSVFPLAPSSKSTSGGTAALGCLVKDYFPEPVTVSWNSGALTSGVHTFPAVLQSSGLYSLSSVVTVPSSSLGTQTYICNVNHKPSNTKVDKKV[letters of human IgG1 Fc omitted]GGGSGGGGSGGGGSGGGGSGIPPHVQKSVNNDMIVTDNNGAVKFPQLCKFCDVRFSTCDNQKSCMSNCSITSICEKPQEVCVAVWRKNDENITLETVCHDPKLPYHDFILEDAASPKCIMKEKKKPGETFFMCSCSSDECNDNIIFSEEYNTSNPD
light: B1 light
notes: anti-PD-L1 / TGFBRII bifunctional fusion protein: PR000070 heavy chain (hIgG1) - (G4S)4 - human TGFBRII extracellular region 24-159
B3: PR001488 (other)
heavy: B2 heavy with D54E
light: B1 light
notes: anti-PD-L1 / TGFBRII bifunctional fusion protein: PR000265 heavy chain (hIgG1) - (G4S)4 - human TGFBRII extracellular region 24-159
B4: PR002248 (other)
heavy: B2 heavy with G55A, V61G, D90E, F106S
light: B1 light with V21I, Y30S, I31S, S94Y
notes: anti-PD-L1 / TGFBRII bifunctional fusion protein: PR000268 heavy chain (hIgG1) - (G4S)4 - human TGFBRII extracellular region 24-159
B5: PR002249 (other)
heavy: B2 heavy with G55A
light: B1 light
notes: anti-PD-L1 / TGFBRII bifunctional fusion protein: PR000266 heavy chain (hIgG1) - (G4S)4 - human TGFBRII extracellular region 24-159
B6: PR001599 (other)
heavy: EVQLLESGGGLVQPGGSLRLSCAASGFTFSSYIMMWVRQAPGKGLEWVSSIYPSGGITFYADTVKGRFTISRDNSKNTLYLQMNSLRAEDTAVYYCARIKLGTVTTVDYWGQGTLVTVSSASTKGPSVFPLAPSSKSTSGGTAALGCLVKDYFPEPVTVSWNSGALTSGVHTFPAVLQSSGLYSLSSVVTVPSSSLGTQTYICNVNHKPSNTKVDKRV[letters of human IgG1 Fc omitted]GGGGSGGGGSGGGGSGGGGSGIPPHVQKSVNNDMIVTDNNGAVKFPQLCKFCDVRFSTCDNQKSCMSNCSITSICEKPQEVCVAVWRKNDENITLETVCHDPKLPYHDFILEDAASPKCIMKEKKKPGETFFMCSCSSDECNDNIIFSEEYNTSNPD
light: QSALTQPASVSGSPGQSITISCTGTSSDVGGYNYVSWYQQHPGKAPKLMIYDVSNRPSGVSNRFSGSKSGNTASLTISGLQAEDEADYYCSSYTSSSTRVFGTGTKVTVLGQPKANPTVTLFPPSSEELQANKATLVCLISDFYPGAVTVAWKADGSPVKAGVETTKPSKQSNNKYAASSYLSLTPEQWKSHRSYSCQVTHEGSTVEKTVAPTECS
notes: also called M7824; bintrafusp alfa analog
B7: PR002466 (other)
heavy: QVQLVQSGAEVKKPGASVKVSCKASGYTFTSYWMHWVRQAPGQGLEWMGRIGPNSGFTSYNEKFKNRVTMTRDTSTSTVYMELSSLRSEDTAVYYCARGGSSYDYFDYWGQGTTVTVSSASTKGPSVFPLAPCSRSTSESTAALGCLVKDYFPEPVTVSWNSGALTSGVHTFPAVLQSSGLYSLSSVVTVPSSSLGTKTYTCNVDHKPSNTKVDKRV[letters of human IgG4 Fc with S228P F234A L235A (EU numbers) omitted]AGGGGSGGGGSGGGGSGGGGSGGAVKFPQLCKFCDVRFSTCDNQKSCMSNCSITSICEKPQEVCVAVWRKNDENITLETVCHDPKLPYHDFILEDAASPKCIMKEKKKPGETFFMCSCSSDECNDNIIFSEEYNTSNPD
light: DIVLTQSPASLAVSPGQRATITCRASESVSIHGTHLMHWYQQKPGQPPKLLIYAASNLESGVPARFSGSGSGTDFTLTINPVEAEDTANYYCQQSFEDPLTFGQGTKLEIKRTVAAPSVFIFPPSDEQLKSGTASVVCLLNNFYPREAKVQWKVDNALQSGNSQESVTEQDSKDSTYSLSSTLTLSKADYEKHKVYACEVTHQGLSSPVTKSFNRGEC
notes: also called Hengrui fusion protein 9
B8: PR001901 (other)
heavy: EVQLVESGGGLVQPGGSLRLSCAASGFTFSSYWMSWVRQAPGKGLEWVANIKQEGSEKYYVDSVKGRFTISRDNAKNSLYLQMNSLRAEDTAVYYCARDRAVAGAFDIWGQGTMVTVSSASTKGPSVFPLAPSSKSTSGGTAALGCLVKDYFPEPVTVSWNSGALTSGVHTFPAVLQSSGLYSLSSVVTVPSSSLGTQTYICNVNHKPSNTKVDKKV[letters of human IgG1 Fc omitted]SGGSGIPPHVQKSVNNDMIVTDNNGAVKFPQLCKFCDVRFSTCDNQKSCMSNCSITSICEKPQEVCVAVWRKNDENITLETVCHDPKLPYHDFILEDAASPKCIMKEKKKPGETFFMCSCSSDECNDNIIFSEEYNTSNPD
light: B1 light
notes: anti-PD-L1 / TGFBRII bifunctional fusion protein: PR000265 heavy chain (hIgG1) - (G2S)2 - human TGFBRII extracellular region 24-159

What was measured:
[1] = biological target: human PD-L1 on Hep3B cells co-expressing human PD-L1 and OS8 (human, UniProt Q9NZQ7); experiment: cell-based or functional assay
[2] = biological target: T1, Human TGFB1 (Novoprotein, CA59) (human, UniProt P01137 fragment, biotinylated with EZ-Link Sulfo-NHS-LC-Biotin in the BLI experiment of Example 19; not biotinylated in the ELISA of Example 16); experiment: ELISA, coated human TGFB1
T1 construct: bought reagent; also called human TGFB1 protein; biotinylated human TGFB1

[3] = biological target: T2, human PD-L1 on CHO-K1 cells (CHO-K1/hPD-L1, Nanjing Genscript, M00543) (human, UniProt Q9NZQ7); experiment: flow cytometry on CHO-K1/hPD-L1 cells
T2 construct: whole, on cells; also called CHO-K1 cells overexpressing human PD-L1; human PD-L1 on the cell surface

[4] = biological target: T2, human PD-L1 on CHO-K1 cells …; experiment: flow cytometry competition: biotin-hPD-1 binding to CHO-K1/hPD-L1 cells
[5] = biological target: T1, Human TGFB1 (Novoprotein, CA59); experiment: ELISA, coated human TGFB1; remark: listed apart in the source
T1 sequence (P01137 279-390 limits assumed): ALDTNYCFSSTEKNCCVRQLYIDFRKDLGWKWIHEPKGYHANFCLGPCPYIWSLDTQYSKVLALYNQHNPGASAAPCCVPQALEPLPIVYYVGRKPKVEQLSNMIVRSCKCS

[6] = biological target: T2, human PD-L1 on CHO-K1 cells …; experiment: flow cytometry on CHO-K1/hPD-L1 cells; remark: listed apart in the source
[7] = biological target: T2, human PD-L1 on CHO-K1 cells …; experiment: flow cytometry competition: biotin-hPD-1 binding to CHO-K1/hPD-L1 cells; remark: listed apart in the source
[8] = biological target: T3, human PD-L1 protein with histidine tag (NovoProtein, C315) (human, UniProt Q9NZQ7 fragment, limits assumed, biotinylated with EZ-Link Sulfo-NHS-LC-Biotin in the epitope competition experiments (Examples 8 and 20); not biotinylated in the affinity experiments); experiment: BLI (Octet), fusion protein on AHC sensor, antigen 12.5-0.78 nM, 1:1 global fit
T3 construct: bought reagent; also called biotinylated PD-L1 protein; not shown: histidine tag

[9] = biological target: T3, human PD-L1 protein with histidine tag …; experiment: BLI (Octet), fusion protein on AHC sensor, antigen 25-1.563 nM, 1:1 global fit
[10] = biological target: human TGFB1 protein (R&D Systems, 240-B/F) (human, UniProt P01137 fragment); experiment: cell-based or functional assay
[11] = biological target: T1, Human TGFB1 (Novoprotein, CA59); experiment: BLI (Octet), biotinylated hTGFB1 on SA sensor, 1:1 global fit
[12] = biological target: T3, human PD-L1 protein with histidine tag …; experiment: BLI (Octet), fusion protein on AHC sensor, antigen 6.25-0.39 nM, 1:1 global fit

Binder | EC50 [2] | OD Maximum value [2] | EC50 [3] | MFI maximum value [3] | IC50 [4] | EC50 [5] | OD Maximum value [5] | EC50 [6] | MFI maximum value [6] | IC50 [7] | other results
B1 | 1.08 nM | 1.74 OD | 0.314 nM | 53000 MFI | 0.216 nM |  |  |  |  |  | EC50 (nM), PD-1 reporter gene cell line [1]: 0.056 nM; Maximum fluorescence value (RLU) [1]: 3600 RLU
B2 |  |  |  |  |  | 1.2 nM | 1.53 OD | 0.501 nM | 41200 MFI | 0.317 nM | Kd [8]: 0.0974 nM; koff [8]: 0.000114 s⁻¹; kon [8]: 1.17e+06 M⁻¹ s⁻¹
B3 | 1.25 nM | 1.78 OD | 0.531 nM | 51500 MFI | 0.266 nM |  |  |  |  |  | EC50 (nM), PD-1 reporter gene cell line [1]: 0.049 nM; Maximum fluorescence value (RLU) [1]: 3550 RLU; Kd [9]: 0.15 nM; koff [9]: 0.000121 s⁻¹; kon [9]: 807000 M⁻¹ s⁻¹
B4 |  |  |  |  |  | 1.29 nM | 1.51 OD | 0.984 nM | 43300 MFI | 0.418 nM | 
B5 |  |  |  |  |  | 1.43 nM | 1.52 OD | 0.584 nM | 41900 MFI | 0.4 nM | Kd [8]: 0.0595 nM; koff [8]: 6.37e-05 s⁻¹; kon [8]: 1.07e+06 M⁻¹ s⁻¹
B6 | 1.55 nM | 1.81 OD |  |  |  |  |  |  |  |  | IC50 (nM), Smad SEAP reporter in HEK-Blue TGFB cells [10]: 0.009 nM; Kd [11]: 0.104 nM
B7 |  |  |  |  |  |  |  |  |  |  | IC50 (nM), Smad SEAP reporter in HEK-Blue TGFB cells [10]: 0.0769 nM; Maximum inhibition rate (%), Smad SEAP reporter in HEK-Blue TGFB cells [10]: 105%; Kd [11]: 0.128 nM; koff [11]: 0.000573 s⁻¹; kon [11]: 4.48e+06 M⁻¹ s⁻¹; Kd [12]: 0.0716 nM; koff [12]: 9.16e-05 s⁻¹; kon [12]: 1.28e+06 M⁻¹ s⁻¹
B8 | 1.29 nM | 1.8 OD | 0.488 nM | 46800 MFI | 0.26 nM |  |  |  |  |  | 

From patent publication US20260258137A1 (HARBOUR BIOMED SHANGHAI, published 2026)
